PubChem BioAssay (NCI)
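Results reflect a 48-hour exposure of cells in 96-well plates to compound at five concentrations. The concentration for 50% growth inhibition is given as GI50. TGI marks complete inhibition of growth.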

Test system: NCI-H322M lung
Assay: NCI anticancer screen, dose series, 48 h

SMILES: CCNC(=O)c1cc(Cl)ccc1NC(=O)C12CC3CC(CC(C3)C1)C2
- TGI: 89.7 µM

SMILES: COC(=O)C1=C(O)[C@H](C(=O)OC)C2(O)C(C(=O)OC)[C@H](c3ccc(OC(=O)C(C)c4ccccc4)cc3)C[C@@H]1[C@@H]2C(=O)OC (stereo not given in full)
- GI50: 12.6 µM
- TGI: 39.5 µM

SMILES: COc1ccc(/C=C/C(=O)/C=C/c2ccc(OC)cc2OC)c(OC)c1
- TGI: > 100 µM

SMILES: O=C(CN(C(=O)OC12CC3CC(CC(C3)C1)C2)C(=O)OC12CC3CC(CC(C3)C1)C2)Oc1ccc([N+](=O)[O-])cc1
- TGI: > 100 µM
